Binding signal data for 22 molecules are collected here from PMC12136788.

The other results are listed elsewhere or left out.

T1: UNK ZnF1-3 (human, UniProt Q9C0B0 31-174)
T1 sequence: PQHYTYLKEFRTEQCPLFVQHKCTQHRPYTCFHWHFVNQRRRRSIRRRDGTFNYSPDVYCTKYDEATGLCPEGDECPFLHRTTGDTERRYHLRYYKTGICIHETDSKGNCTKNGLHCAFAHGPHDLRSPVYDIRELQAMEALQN

B1: chr2:119552488:119552489:+_ENSMUSG00000027304_ENSMUST00000028767|mus_mus|motif|central (ssRNA)
RNA: GGGAGUUCUACAGUCCGACGAUCAAACAUCGCUUCUUUCCACUUCAUGAAUUCACUUUCAGUGAAUUCUUGGUUGGACACAAACUCGGGGCGGAACACUCGCUGGUCAUUGCCAUGCCGUAGCUGGAGCCCUUUAUUUGUUCUCAACAGAGGAUUGAGCAUCA
B2: chr7:56126341:56126342:+_ENSG00000146731_ENST00000540286|hu_mus|hu_hu_hu_mus_True|1_98 (ssRNA)
RNA: GGGAGUUCUACAGUCCGACGAUCCAUGUUUCUCCUCUUAGCUCUGCGCAGAGCUACGAUCCCUUCUUUCGCAAGGGCAUCUAAGGAAAAGGGGUCAAUCCCCUUUUGAUUAAUAACGACAAAUCCUUUAUCUGAGUCGCCACACAACAGAGGAUUGAGCAUCA
B3: chr17:37088456:37088457:-_ENSMUSG00000036398_ENSMUST00000040402|mus_hu|motif|central (ssRNA)
RNA: GGGAGUUCUACAGUCCGACGAUCGUAACCGUUGUCUCAGUGACGGUCUCGCUCAGCCCAGCCCCUGCCUCGGCCAUGGCGGAGGCUCAGGACAGGGAGGAGAGGAGGAAGGGGGAUGAGACACCCUUCCCUUUUUCUGUCGCUCAACAGAGGAUUGAGCAUCA
B4: chr10:1038518:1038519:+_ENSG00000107937_ENST00000545048|hu_hu|hu_hu_hu_mus_False|1_68 (ssRNA)
RNA: GGGAGUUCUACAGUCCGACGAUCCAGUCUGUCAUGGUAAUUCUGUUGAGUAAAUUUGACUUUUCUCAUGUAAAAAUGUCGAAUCCGAUGAAUUUGAUAAUGUUUAUGAAUAACCGUUGGAGUCUUUCGUUGAGUCUUCGACAACAACAGAGGAUUGAGCAUCA
B5: chr4:25749455:25749456:-_ENSG00000091490_ENST00000264868|hu_hu|hu_hu_hu_mus_False|88_98 (ssRNA)
RNA: GGGAGUUCUACAGUCCGACGAUCGCACUAUGACCUCCCCUAGAAAAAUUCAAGGAGAAAAAUGUAAACCAAUGUACAAUGUUAUCGCCUUCCCUGUGUGUGGAGUGUUUGUCUCAAGGCUCCUUCUAGCUGCUGGAUUUGGGACAACAGAGGAUUGAGCAUCA
B6: chr7:141441981:141441982:+_ENSG00000106028_ENST00000265304|hu_mus|hu_hu_hu_mus_False|48_78 (ssRNA)
RNA: GGGAGUUCUACAGUCCGACGAUCCUCAUGUCUUACAAACUGACGAAAUACCUGUAAUACAGGUCUUCGAAACAUGGCUUCUGUUUUCUUUUCUUACUAAUCUUUAGGCUUUUCCUAAAGGAAAGAAAGAAAAGAGAAAAAUGACAACAGAGGAUUGAGCAUCA
B7: chr8:8869160:8869161:+_ENSG00000104626_ENST00000250263|hu_mus|FALSE|FALSE (ssRNA)
RNA: GGGAGUUCUACAGUCCGACGAUCGAUUUCAUGUAGGAACUCAGCUGGGUUCCCCUCUUCACAAGUAGCCUCAAAGUCAAUGAUACAAAUGUAGUCAUAGUAACUGUCCCCAGCGGAGCUCUCUUUCAGCAUCAACUUCUGCUUCAACAGAGGAUUGAGCAUCA
B8: chr5:38528984:38528985:-_ENSMUSG00000029126_ENSMUST00000031009|mus_mus|motif|central (ssRNA)
RNA: GGGAGUUCUACAGUCCGACGAUCGAUUCAGAUUGAAACAUAAACAUACUUUUCUUACAAAGAUUGUGGACUUAGAUAUUCGGUUUGCAAGGUGCCACAUCAGCCCCCCCCACCAGCCGUCCUGCCCCUUCCCACAGCACAGGACAACAGAGGAUUGAGCAUCA
B9: chr11:20128097:20128098:-_ENSMUSG00000044066_ENSMUST00000050611|mus_mus|FALSE|FALSE (ssRNA)
RNA: GGGAGUUCUACAGUCCGACGAUCUGCUUUUGACCAAUUCUAGGUUUUAUAGGAUAUUUUACAUUUAACUUAAAUUAUUUGCUAGAAAAGUUUUGUUUUAGCCUCUUGAAAGCACUUUAUGUACCAUGUACAGUAUAAGAAAUACAACAGAGGAUUGAGCAUCA
B10: 58473482_58473602_2635_ncRNA_ENSMUSG00000026034_ENSMUST00000129577|mouse|control|control (ssRNA)
RNA: GGGAGUUCUACAGUCCGACGAUCCUUCUUCUUCAAAAGGGUUUUAUGGCACCUGCUAGCCUUGAACUCAGAGAUCCGCCUGCCUCUGCCUUGGAAAUGCUGGGGAGUUAAAGGUGUCUACCAUCCCCUGACCUUUUAAACCACCAACAGAGGAUUGAGCAUCA
B11: chr13:111190716:111190717:+_ENSMUSG00000021701_ENSMUST00000022212|mus_mus|FALSE|FALSE (ssRNA)
RNA: GGGAGUUCUACAGUCCGACGAUCCAGUUCCAAGUCUUCCAACUGAAGACGCUCUCAACAGAGAGAACUUCAGAGUCAAUGCAUCUUUCUGAAAAACUGUCCCAUAAACCUUUUCACGACAGGUAUCUCAGGGAAAACUGCACUCAACAGAGGAUUGAGCAUCA
B12: chr7:75932113:75932114:+_ENSG00000106211_ENST00000248553|hu_hu|hu_hu_hu_mus_False|18_18 (ssRNA)
RNA: GGGAGUUCUACAGUCCGACGAUCCUGCGACCACUCAUCGGGCAACCGGGGCACCCCGAAAGCUUGAUCGAAGAGGCGGCUGUGUGCAGGGUACCAGUCCCGGAAUGGUUCCCAGCUGCCCCGCAGGAGCAGCGAGAAGGGCACCAACAGAGGAUUGAGCAUCA
B13: chr1:184392483:184392484:+_ENSMUSG00000026510_ENSMUST00000117245|mus_hu|motif|central (ssRNA)
RNA: GGGAGUUCUACAGUCCGACGAUCUUUUAAAGUCAGCUAUGAUCUUGACAAAUAUUACGGGUAAGUCUGUAGCAAGUUUCGGAUUUCUGAGAUACAAAAGACAAUAAAUACAGAUUAAAAUUCAGCCUACAAACAAGAUUCUACCAACAGAGGAUUGAGCAUCA
B14: 50188117_50245300_635_CDS_ENSG00000121274_ENST00000436909|human|control|control (ssRNA)
RNA: GGGAGUUCUACAGUCCGACGAUCCCGCAUCUUCUCCUCCUCAGGUCUUGGAGACAUGUAUUCAUAAAAAUCACUGAUUUCUUCAUGCAGACCCACGACUCCCUGGUUGUAGUUCCUCCGUUUCCACGGGGUCCCGCUGUACACCAACAGAGGAUUGAGCAUCA
B15: chr14:89343726:89343727:+_ENSG00000165533_ENST00000346301|hu_hu|FALSE|FALSE (ssRNA)
RNA: GGGAGUUCUACAGUCCGACGAUCAGACAUAGUGCUUUUUUCCCCUUGCAUAAUGCUGCUUCAUAAGAACAUAUGUGGUCUAAGGAACAAUCAGAGCAUAGCAAAAUGCUGCCUUAAUUGUUUAAUUAAAUGUUGUGUGUCCACCAACAGAGGAUUGAGCAUCA
B16: chr1:133829981:133829982:+_ENSMUSG00000026434_ENSMUST00000062264|mus_mus|motif|central (ssRNA)
RNA: GGGAGUUCUACAGUCCGACGAUCGAACUGUAAUUAGAAAAUAUACCUUCAAUCUAAUGAGUUAGUUUUAAAAGGAAUUCGGAACAAGUCCAAUCAGACACACCUUUUACACAAGUAACGUAGAAGAUAGUAUUAUUUCUCAAUCAACAGAGGAUUGAGCAUCA
B17: chr18:33606911:33606912:-_ENSG00000141425_ENST00000399022|hu_hu|FALSE|FALSE (ssRNA)
RNA: GGGAGUUCUACAGUCCGACGAUCUUCCAAUUUAUGCUCUUUCUCUGCAAGGGCUUCCUUUUGACAACGAAGAAAAUCUGCUAACAUUCGAGUGAGUUGCUUUCUAUCAUCUAUUUCUGCCGCCAAUCUGCCAUUGUAAUCUGCCAACAGAGGAUUGAGCAUCA
B18: chr3:10015032:10015033:+_ENSMUSG00000027533_ENSMUST00000029046|mus_mus|mus_mus_mus_hu_True|58_98 (ssRNA)
RNA: GGGAGUUCUACAGUCCGACGAUCGUUUUUACCAUCACACGUAAUGAUACAAUCUGGCUUGGCCAUUGCGCCCAUUUUCCUAAGAGCUAUUCCCACUCCUAGCUCCUUCAUGUAUUCAUCAAAGCCUUUGCUGUCCACCAGGCGCAACAGAGGAUUGAGCAUCA
B19: chr11:75578393:75578394:+_ENSMUSG00000020849_ENSMUST00000067664|mus_mus|motif|central (ssRNA)
RNA: GGGAGUUCUACAGUCCGACGAUCCAAUACAGUAAUGCUGAAAAAGCCUCUAUGCAGUCCUGUUAGUGUCGUAAAGAACCGGAAGCUGGGACCAGUAAAAUCCACAGAAAUUCACUCUUGCCUUAAGAACUUCUGAAAACUGUUCAACAGAGGAUUGAGCAUCA
B20: chr2:32086683:32086684:+_ENSMUSG00000039262_ENSMUST00000036691|mus_mus|FALSE|FALSE (ssRNA)
RNA: GGGAGUUCUACAGUCCGACGAUCUGACCACUGGGGACAGCAGAGCAGAGAGAGGACAGCGAGGACCAUAUAAAAGUUCAGCUAUACAGAUGUAGCUAGCAUUUUGUUCUCAUUUCCCCUUUGUAAAAACCUUAGCUGCUUUUUCAACAGAGGAUUGAGCAUCA
B21: chr6:41757443:41757444:+_ENSG00000214736_ENST00000398881|hu_mus|hu_hu_hu_mus_False|88_98 (ssRNA)
RNA: GGGAGUUCUACAGUCCGACGAUCGAACCGUGCAGAGACCAGAGAAUGGAAUUCUGCGGGGGAUGGGGGGGCAGUGGGGGGGGGUUCAGGCAAGGAGAGGGAGUCAACUUCAGCUGCCACUCAGGUAGGAUCUUGUGGUCACAGCAACAGAGGAUUGAGCAUCA
B22: chr17:23961646:23961647:+_ENSMUSG00000039218_ENSMUST00000088621|mus_mus|FALSE|FALSE (ssRNA)
RNA: GGGAGUUCUACAGUCCGACGAUCGCAUUUCUCAUUUUUAUUUGACAGAAAAAGUUGCUUUUACUGUACAGAUUUUAAAAAACCAAAAUGCCUUAAACAAAGUUGGGGGGGAGAGGGCCUCACAACCUUGUAAGGGGGUGCAGCCAACAGAGGAUUGAGCAUCA

In this experiment the target is T1, UNK ZnF1-3. Briefly: nsRBNS (natural sequence RNA bind-n-seq); RBNS binding buffer (assumed for nsRBNS): 25 mM Tris pH 7.5, 150 mM KCl, 3 mM MgCl2, 0.01% Triton X-100, 500 ug/ml BSA, 20 U/ml SUPERase-In, 4 C; UNK is unkempt and MSI1 is Musashi-1; names of the RNAs are library labels; protein concentration not given here; high values mean tight binding.
B1 came in with a binding signal of 0.606 enrichment R.

In turn, B2 returned a binding signal of 0.833 enrichment R. With B3, the binding signal was 0.474 enrichment R. B4 yielded a binding signal of 0.604 enrichment R. B5 came in with a binding signal of 1.12 enrichment R. For the molecule B6, the binding signal came to 0.396 enrichment R.

In the case of B7, the binding signal was 0.925 enrichment R. B8 gave a binding signal of 1.29 enrichment R. B9 came in with a binding signal of 0.709 enrichment R.

Regarding B10, the binding signal worked out at 1.24 enrichment R. With B11, the binding signal is 0.665 enrichment R. Regarding B12, the binding signal amounted to 0.89 enrichment R.

In turn, B13 had a binding signal of 1.19 enrichment R. With B14, the binding signal amounted to 0.992 enrichment R. B15 returned a binding signal of 1.74 enrichment R.

As for B16, the binding signal was 0.788 enrichment R.

For B17, the binding signal worked out at 0.639 enrichment R. In the case of B18 it was 0.645 enrichment R.

B19 came in with a binding signal of 1.36 enrichment R. On to B20, for which the binding signal is 1.28 enrichment R. In turn, B21 had a binding signal of 1.56 enrichment R. B22 displayed a binding signal of 0.68 enrichment R.
